Experimental data: paper PMC12040169 (PLOS Biology, 2025)
The list shows a part of the results.

System: T1, C. trachomatis L2/434/Bu expressing GFP (CTL2-GFP)
T1 construct: L2/434/Bu GFP intracellular growth in HeLa cells
Parameters: species or system HeLa; C. trachomatis total inclusion area by high-content imaging, normalised to DMSO
Settings: total inclusion area; 28.5 h, 10 µM; inhibitor
Procedure, shortened: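 Host cell viability was gauged from Hoechst-stained nuclei counts, while chlamydial growth was taken from total inclusion area and inclusion number per well. Cells were fixed and imaged by high-content microscopy once bulk GFP and resorufin fluorescence had been measured.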

| Structure (SMILES) | % of control remaining |
| --- | --- |
| COc1ccc(-c2cc(C3CCN(C(=O)C4CC4)C3)[nH]n2)cc1 (stereo not shown) [CBK285263] | 98.3507 |
| Cc1ccccc1-c1cnc(N)c(-c2ccc(O)cc2)n1 [CBK115544] | 87.9026 |
| CC(C)c1cccc(N2CC(C(=O)Nc3cc(S(C)(=O)=O)ccc3F)CC2=O)c1 (stereo not shown) [CBK296751] | 111.508 |
| Cc1noc(C)c1S(=O)(=O)Nc1cccc(-c2cnco2)c1 [CBK067108] | 95.4256 |
| Cc1ccc(C)c(OCCNCCN(C)C)c1Cl [CBK267816C] | 92.4412 |
| S=c1nc(-c2ccco2)n(Cc2ccccc2)c(=S)n1/C(=N/Cc1ccccc1)c1ccco1 [CBK223550] | 107.002 |
| NCCNC(=O)c1cc(-c2ccc(Cl)cc2)[nH]n1 [CBK160975] | 104.522 |
| Cc1cccnc1C(Cc1ccsc1)NS(=O)(=O)c1ccc2[nH]c(=O)[nH]c(=O)c2c1 (stereo not shown) [CBK286356] | 76.065 |
| CCOC(=O)C(C)n1nc(C)n2c(cc3ccsc32)c1=O (stereo not shown) [CBK284079] | 52.8905 |
| O=C(c1cccnc1)N1CCC(c2cccc(Cc3ccc(C(F)(F)F)cc3)n2)CC1 [CBK286222] | 64.8025 |
| Cc1nc2c(c(=O)[nH]1)CN(C(=O)c1cc(C3CC3)oc1C)CC2 [CBK283650] | 96.3504 |
| CCOC(=O)c1c(NC(=O)Cn2cnc3ccccc32)sc2c1CCCC2 [CBK260917] | 73.229 |
| CC(C)CC(=O)N1C[C@H]2CCCN(Cc3ccsc3)[C@H]2C1 [CBK285290] | 91.3422 |
| COc1cccc(CNC(=O)NC(=O)C2CCN(C)CC2)c1 [CBK034828] | 88.1494 |
| CCOC(=O)C1CCCN(Cc2c(C)nn(C)c2Cl)C1 (stereo not shown) [CBK304838] | 97.753 |
| O=[N+]([O-])c1ccc(F)cc1NS(=O)(=O)c1ccccc1 [CBK000674] | 103.446 |
| CCCCC(c1cccnc1)N(C)C(=O)c1cnc(C)c(C)c1 (stereo not shown) [CBK307121] | 105.544 |
| CC(C)Nc1nc2ccccc2nc1Sc1cccc(C(=O)O)c1 [CBK115955T] | 90.827 |
| COc1ccc2cc(CNc3ccc(F)c(F)c3)c(=O)[nH]c2c1 [CBK281934] | 104.722 |
| O=C(O)C1CC=CCC1C(=O)Nc1ccc(S(=O)(=O)N2CCc3ccccc32)cc1 (stereo not shown) [CBK268122] | 99.4098 |

| Structure (SMILES) | % of control remaining |
| --- | --- |
| CC(=O)c1ccc(-c2cnc3[nH]c(=O)n([C@H](C)c4ccccc4)c3n2)s1 [CBK064375] | 129.933 |
| CC(C)n1nnnc1SCCC(=O)N1CCN(c2ccc(F)cc2)CC1 [CBK304602] | 56.7004 |
| OCCN1CCN(c2nc(NCC3CCCO3)c3ccccc3n2)CC1 (stereo not shown) [CBK266659C] | 124.238 |
| Cc1ccc(Nc2nccc(C3CCCN(Cc4ccc5[nH]ccc5c4)C3)n2)nc1 (stereo not shown) [CBK286122] | 74.0881 |
| Cc1cc(NCn2nnc3ccccc32)ccc1Br [CBK057031] | 67.963 |
| Cc1nn(C)c(N2CCNCC2)c1NC(=O)Cc1cn(C)c2ccccc12 [CBK050254T] | 98.5044 |
| Cc1ccccc1-c1ccccc1CC1(C(=O)N(C)C)CCN(C(=O)CC(C)(C)C)CC1 [CBK285715] | 63.1641 |
| COc1ccc(C(C)NC(=O)c2c3c(nn2C)CCCC3)cc1F (stereo not shown) [CBK281406] | 57.6645 |
| Cc1cc(COc2nccnc2N2CCN(CCCO)CC2)no1 [CBK084197] | 92.7126 |
| NC(=O)CSc1nnc(NC(=O)c2ccccc2)s1 [CBK287628] | 123.041 |
| CN(C)c1cccc(-c2cccc(NCC(c3cccnc3)N(C)C)n2)c1 (stereo not shown) [CBK037697] | 77.3423 |
| CCCCCNC(=O)C(Cc1ccc(O)c(C(=O)OCc2ccccc2)c1)NC(=O)OC(C)(C)C (stereo not shown) [CBK001708] | 50.6076 |
| CCOC(=O)c1cnc(Nc2nc3ccccc3o2)nc1CN1CCN(c2ccccc2)CC1 [CBK266927] | 114.425 |
| COc1ccc(C2CC(=O)C=C(Nc3cc(Cl)ccc3O)C2)cc1 (stereo not shown) [CBK263542] | 22.9139 |
| COc1ccc(Cl)cc1N1CCN(CCO)CC1 [CBK138339] | 94.6146 |
| COc1ccc(Oc2cncc(OC3CCN(CC4CC4)C3)n2)cc1OC (stereo not shown) [CBK084412] | 82.3291 |
| Nc1ncc(-c2cccc([N+](=O)[O-])c2)nc1-c1ccc(O)cc1 [CBK122507] | 99.3587 |
| COc1ccc(C(=O)OC(C)(C)C)c(-c2nccnc2N[C@@H](C)c2ccccc2)c1 [CBK036994] | 78.7806 |
| Cc1nn(C)c(Oc2cccc(C(F)(F)F)c2)c1C(=O)O [CBK000324] | 92.47 |
| Cc1cc(=O)n2c3c(cc(S(=O)(=O)NC4CC4)cc13)CC2 [CBK218959] | 47.2302 |
